Assay results reported in the RNAGym collection of RNA variant scans (doi:10.1073/pnas.2313332121).
This sample is rich in variants without activity.

B1: TPR 5TU (parent)
chain: GGAUCUUCUCGAUCUAACAAAAAAGACAAAUCUGCCACAAAGCUUGAGAGCAUCUUCGGAUGCAGAGGCGGCAGCCUUCGGUGGCGCGAUAGCGCCAACGUUCUCAACUAUGACACGCAAAACGCGUGCUCCGUUGAAUGGAGUUUAUCAUG

Variants of: B1
Assay: polymerase ribozyme fitness, log enrichment relative to wild type (log ratio); higher = more active; in vitro selection for triplet polymerase activity
Procedure, shortened: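 Libraries of mutants in each subunit of a heterodimeric triplet polymerase ribozyme were generated by PCR and transcribed. In triplicate, each went through one in vitro selection round: annealing with biotinylated primer, partner subunit and triplets; frozen incubation at −7 °C; gel excision of extended constructs; streptavidin-bead capture; RT-PCR. Fitness, taken from Illumina sequencing of input and output libraries, is the logarithm of a genotype's enrichment over wild-type enrichment, averaged across replicates with inverse-variance weights. The logarithm is base 2, and genotypes needed ≥10 input reads and ≥1 read per output to be kept.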

GGAUCUUCUGGAUCUAACAAAAAAGACAAAUCUGCCACAAAGGUUUAGAGCAUCUUCGGAUGCAGAGGCGGCAGCAUUCGGUGGCGCGAUAGCGCCAACGUUCUCAACUAUGACACGCAAAACGCGUGCUCCGUUGAAUGGAGUUUAUCAUG [C10G C43G G46U C76A] and GGAUCUUCUGGAUCUAACAAAAAAGACAAAUCUGCCACACAGCUUGAGAGCAUCUUCGGAUGCAGAGGCGGCAGCCUUCGGUGGAGCGAUAUCGCCAACGUUCUCAACUAUGACACGCCAAACGCGUGCUCCGUUGAAUGGAGUUUCUCAUG [C10G A40C C85A G92U A119C A147C] cannot be ordered by “polymerase ribozyme fitness (log ratio)” value: no more than -4.2 for the first, no more than -4.2 for the second.

GGAUCUUCUGGAUCUAACAAAAAAGACAAAUCUGCCACAAAGCUUGAGAGCAUCUUCGGUUGCAGAGGCGGCAGCCUUCGGUGGCGCGAUAGCGCUAACGUUCUCAACUAUGACACGCAAAACUCGUGCUCCGUUGAAUGGAGUUUAUCCUG [C10G A60U C96U G124U A150C] and GGAUCUUCUGGAUCUAACAAAAAAGACAAAUCUGCCACAAAGCUUGAGAGCAUAUUCGGAUGCAGAGGCGGCAGCCGUCGGUGGCGCGAUAGCGCCAUGGUUCUCAGCUAUGACACGCAAAACGCGUGCUCCGUUGAAUGGAGUUUAUCAUG [C10G C54A U77G A98U C99G A107G] cannot be ordered by “polymerase ribozyme fitness (log ratio)” value: no more than -4.2 for the first, no more than -4.2 for the second.

GGAUCUUCUGGAUCUAACAAAAAAGACAAAUCUGCGACAAAGCUUGUGAGCAUCUUCGGAUGCAUAGGCGGCAGCCUUGGGUGGCGCGAUAGUGCCAAGGUUCUCAACUAUGACACGCAAAACGCCUGCUCCGUUGAAUGGAGCUUACCAUG [C10G C36G A47U G65U C79G C93U C99G G126C U144C U148C] and GGAUCUUCUGGAUCUAACAAAAAAGACCAAUCUGCCACAAAGCUUGAGAGCAUCUUCGGAUGCAGAGGCGGCAGCCUACGGUGGCGCGAUAACGCCAACGUUCUCAACUAUGACAAGCAAAACGCGUGCUCCGUUGAAUGGAGUUUAUCAUG [C10G A28C U78A G92A C116A] cannot be ordered by “polymerase ribozyme fitness (log ratio)” value: no more than -4.2 for the first, no more than -4.2 for the second.

GGAUCUUCUGGAUCUAACAAAAAAGACAAAUCUGCCACAAAGCUUGAGUGCAUCUUCGGAUGCAGGGGCGGCAGCCUUCGGUGACGUGAUAGCGCCAGCGUUCUCAACUAUGACACGCAAAACGCGUGCUCCGUUGAAUGGAGUUUAUCAUG [C10G A49U A66G G84A C87U A98G] and GGAUCUUCUGGAUCUAAUAAAAAAGACAAAUCUGCCACAAAGCUUGAGAGCAUCUUCGUAUGCAGAGGCGGCAGCCUUCGGUGGCACGAUAGCGCCAACGUUAUCAACUAUGACACGCAAAACGCGUGCUCCGUUGAAUGGAGUUUAUCAUG [C10G C18U G59U G86A C103A] cannot be ordered by “polymerase ribozyme fitness (log ratio)” value: no more than -4.2 for the first, no more than -4.2 for the second.

GGAUCUUCUGGAUCUAACAAAAAAGACUAAUCUGCCACAAAGCUUGAGAGUAUCUUCGGAUGCAGAGGCGGCAGCCUUCGGUGGCGCGAUAGCGCUAACGUUCUCAACUAUGACACGCAAAAAGCGUGCUCCGUUGAAUGGAGUUUAUCAUG [C10G A28U C51U C96U C123A] and GGAUCUUCUGGAUCUAACAAAAAAGACUAAUCUGUCACAAAGCUUGAGAGCAUCUUCGGAUGCAGAGGCGGCAGCCUUCGGUGGCGCGAUGGCGCCAACGUUCUCAACUAUGACACGCAAAACGCGUGCUACGUUGAAUGGAGUAGAUGAUG [C10G A28U C35U A91G C131A U145A U146G C149G] cannot be ordered by “polymerase ribozyme fitness (log ratio)” value: no more than -4.2 for the first, no more than -4.2 for the second.

GGAUCUUCUGGAUCUAACAAAGAAGACAAAUCUGCCACAAAGCUUGAGAGCUUCUUCGGAUGCAGAGGCGGCAGCCGUCGGUGGCGCGAUAGCGCCAACGUUCUCAACUAUGACACGCAAAACGCGUGCUCCGUUGAAUGGAGUUUACGAUG [C10G A22G A52U U77G U148C C149G] and GGAUCUUCUGGAUAUAACAAAAAAGACAAAUCUGCCACAAAGCUUCAGAGCAUCGUCGAAUGCAGAGACGGCAGCCUUCGGUGGCGCGAUAGCGCCAACGUUCUCAACUAUGUCACGCAAAACGCGUGCUCCGUUGAAUGGAGUUUAUCAUG [C10G C14A G46C U55G G59A G68A A113U] cannot be ordered by “polymerase ribozyme fitness (log ratio)” value: no more than -4.2 for the first, no more than -4.2 for the second.

GGAUCUUCUGGAUCUAACAAAAAAGACAAAUCUGACACAAAGCUUGAGAGCAUCUUCGGAUGCAGAGGCGGCAGCCUUCGAUGGCGCGAUAGCGCCAACGUUCUCAACUAUGACACGCAAAACGCGUGCUCCGUUGAAUGGAGUUUAUUAUG [C10G C35A G81A C149U] and GGAUCUUCUGGAUCUAACAAAAAAGACAAAUCUGCCACAAAGCUUGAGGGCAUAUUCGGAUGCAGAUGCGGCAGCCUUCGGUGGCGCAAUACCGCCAACGUUCUCAACUAUGACACGCAAAACGCGUGCUCCGUUCAAUGGAGUUUAUCAUG [C10G A49G C54A G67U G88A G92C G136C] cannot be ordered by “polymerase ribozyme fitness (log ratio)” value: no more than -4.2 for the first, no more than -4.2 for the second.

GGAUCUUCUGGAUCUAACAAAAAAGACAAAUCUGCCACAAAGCUUGAGAGCAUCUUCGGAUGCAGAGGCGGCUGCCUUCGGUGGCGUGAUAGCGCCAACGUUCUCAAGUAUGACACGCAAAACGCGUGCUACGUUGAAUGGAGUUUAUCAUG [C10G A73U C87U C108G C131A] and GGAUCUUCUGGAUCUAACAAAACAGACAAAGCUGCCACAAAGCUUGAGAGCAUCUUCGGAUGCAGAGGCGGCAGUCUUCGGUGGCGGGAUAGAGCCAACGUUCUCAACUAUGACACGCAAAACGCGUGCUCCUUUUAAUGGAGUUUAUCAUG [C10G A23C U31G C75U C87G C93A G133U G136U] cannot be ordered by “polymerase ribozyme fitness (log ratio)” value: no more than -4.2 for the first, no more than -4.2 for the second.

Compared with GGAUCUUCUGGAUCUAACAAAAAAGACAAAUCUGUCACAAAGCUUGAGAGCAUCUUCGGAUGCAGAGGCGGCAGCCUUCGGUGGCGCGAUAGCGCCAACGUUCUCAACUAUGACACGCAAAACGCGUGCUCCGUUGAAUGGAGUUUAUCAUG [C10G C35U], GGAUCUUCUGGAUCUAACAAAAAAGACAAAUCUGCCUCAAAGCUUGAGAGCAUCUUCGGACGCAGAGGCGGCAGCCUUCGGUGGCGCGAUAGCGCCAACGUUCUCAACUAUGACAUGCAAAACGCGUGCUCCGUUGAAUGGACUUUAUCAUG [C10G A37U U61C C116U G143C] is lower in “polymerase ribozyme fitness (log ratio)” value: -3.4 for the first, no more than -4.2 for the second.

With GGAUCUUCUGGAUCUAACAAAAAAGACAAAUAUGCCACAAAGCUUGAGAGCAUCUUCGGAUGCAGAGGCGGCAGCCUUCGGUGGCUCGAUACCGCCAACGUUCUCAACUAUGACACGCAAAACACGUGCUCCGUUGGAUGGAGUUUAUCAUG [C10G C32A G86U G92C G124A A137G] the “polymerase ribozyme fitness (log ratio)” value was no more than -4.2.
